Results published in article PMC6606709, “Granzyme A Stimulates pDCs to Promote Adaptive Immunity via Induction of Type I IFN” (Frontiers in Immunology, 2019).
Results are given in words; binding and its absence hold for the method and conditions named. In cells and extracts the contact can be indirect. Some entries that bind do so weakly or less than the wild type. Tags and fused reporters may be left off the sequences shown. Values belong to the binder of their own block, whether it stands above or below them.

How the values were obtained:
[1] = target: T1, mouse TLR9-3xFLAG (mouse) (UniProt Q9EQU3); assay: co-IP; HEK293T co-transfected with mTLR9-3xFlag and gzmA-cMyc; lysis in 20 mmol/L Tris HCl pH 7.4, 150 mM NaCl, 1% NP40; IP with anti-FLAG M2, blot with anti-Myc; 4°C
T1 sequence: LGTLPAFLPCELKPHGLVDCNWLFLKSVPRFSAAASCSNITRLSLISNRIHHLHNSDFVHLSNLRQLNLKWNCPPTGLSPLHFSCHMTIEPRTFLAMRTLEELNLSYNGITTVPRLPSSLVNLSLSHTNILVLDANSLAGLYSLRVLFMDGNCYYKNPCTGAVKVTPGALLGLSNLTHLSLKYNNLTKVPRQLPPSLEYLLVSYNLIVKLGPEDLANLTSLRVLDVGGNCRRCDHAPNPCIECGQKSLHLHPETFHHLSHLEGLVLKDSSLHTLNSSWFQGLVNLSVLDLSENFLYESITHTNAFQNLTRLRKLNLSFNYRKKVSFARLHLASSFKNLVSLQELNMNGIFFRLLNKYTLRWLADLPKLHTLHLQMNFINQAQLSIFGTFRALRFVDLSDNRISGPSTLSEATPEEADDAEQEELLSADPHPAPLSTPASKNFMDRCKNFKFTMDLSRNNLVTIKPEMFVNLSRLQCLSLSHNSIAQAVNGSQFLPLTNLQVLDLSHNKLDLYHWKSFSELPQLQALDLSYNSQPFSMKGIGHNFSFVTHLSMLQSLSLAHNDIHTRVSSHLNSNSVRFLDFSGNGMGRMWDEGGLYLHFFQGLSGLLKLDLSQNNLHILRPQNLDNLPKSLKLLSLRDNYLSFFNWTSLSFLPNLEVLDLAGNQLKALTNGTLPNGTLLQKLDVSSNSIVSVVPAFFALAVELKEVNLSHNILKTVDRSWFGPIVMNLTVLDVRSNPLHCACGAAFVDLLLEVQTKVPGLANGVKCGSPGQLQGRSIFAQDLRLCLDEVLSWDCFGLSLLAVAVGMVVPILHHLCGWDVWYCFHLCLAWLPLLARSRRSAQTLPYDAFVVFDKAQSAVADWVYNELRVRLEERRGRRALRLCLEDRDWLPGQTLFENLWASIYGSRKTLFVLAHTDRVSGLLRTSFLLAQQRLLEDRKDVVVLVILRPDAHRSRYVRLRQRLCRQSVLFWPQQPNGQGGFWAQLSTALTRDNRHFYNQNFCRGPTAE

[2] = target: T2, endogenous TLR9 of mouse FL-DCs (mouse (endogenous in FL-DCs)) (UniProt Q9EQU3); assay: co-IP; primary FL-DCs treated with 3 μg/ml recombinant GzmA for 8 h, then lysed; IP with anti-TLR9 (5G5), blot with anti-TLR9 or anti-GzmA; 4°C; only the binder purified
T2 sequence: T1 sequence

binding [1]: no binding
B1: GzmA (exon 3-4) (Gly73-Asn208)-cMyc (domain or fragment, UniProt P11032 73-208)
chain: GKRSKFILGAHSINKEPEQQILTVKKAFPYPCYDEYTREGDLQLVRLKKKATVNRNVAILHLPKKGDDVKPGTRCRVAGWGRFGNKSAPSETLREVNITVIDRKICNDEKHYNFHPVIGLNMICAGDLRGGKDSCN

binding [1]: binds
B2: GzmA-cMyc, processed form of mouse granzyme A (exon 2-5, Ile29-Val260) (enzyme, UniProt P11032 29-260)
chain: IIGGDTVVPHSRPYMALLKLSSNTICAGALIEKNWVLTAAHCNVGKRSKFILGAHSINKEPEQQILTVKKAFPYPCYDEYTREGDLQLVRLKKKATVNRNVAILHLPKKGDDVKPGTRCRVAGWGRFGNKSAPSETLREVNITVIDRKICNDEKHYNFHPVIGLNMICAGDLRGGKDSCNGDSGSPLLCDGILRGITSFGGEKCGDRRWPGVYTFLSDKHLNWIKKIMKGSV

binding [2]: binds
B3: recombinant granzyme A (GzmA), mouse, residues 29-260, histidine-tagged (enzyme, UniProt P11032 29-260, looked up)
chain: B2 chain
notes: mouse granzyme A, residues 29-260; also called recombinant GzmA

binding [1]: binds
B4: GzmA (exons 4-5) (Leu119-Val260)-cMyc (domain or fragment, UniProt P11032 119-260)
chain: LKKKATVNRNVAILHLPKKGDDVKPGTRCRVAGWGRFGNKSAPSETLREVNITVIDRKICNDEKHYNFHPVIGLNMICAGDLRGGKDSCNGDSGSPLLCDGILRGITSFGGEKCGDRRWPGVYTFLSDKHLNWIKKIMKGSV

binding [1]: binds
B5: GzmA (exons 2-3) (Ile29-Arg118)-cMyc (domain or fragment, UniProt P11032 29-118)
chain: IIGGDTVVPHSRPYMALLKLSSNTICAGALIEKNWVLTAAHCNVGKRSKFILGAHSINKEPEQQILTVKKAFPYPCYDEYTREGDLQLVR
